Experimental data reported in PubChem BioAssay AID504832 (National Center for Advancing Translational Sciences (NCATS), 2011).
The whole screen tested about 310,000 compounds, of which about 18,000 (5.8%) were called active. The shares of active, inactive and inconclusive entries below differ from those in the screen. The call rests on the fitted dose curve; in most records, active means well fitted inhibition curve with a large enough effect; inconclusive means small, poorly fitted or top-dose-only effect, or another doubt; inactive means no such curve, though single readings can be large or run the other way. No potency is given beside an inconclusive call; the fits are too rough.

Experiment: Primary qHTS for delayed death inhibitors of the malarial parasite plastid, 48 hour incubation
Details: P. falciparum luciferase growth in erythrocytes; series mostly up to 28.7 µM; activity change, negative = inhibition: at the top concentration
In short: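 Compounds are pin-transferred into medium, infected erythrocytes (2% hematocrit, 0.1% parasitemia final) are added, and plates sit one parasite generation at 37 C in 5% CO2. Detection reagent is then added and luminescence measured.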
On the % scale 0 is the no-effect control and ±100 the full control effect; potency means the concentration at half of the fitted maximal effect; tags describe the fitted curve by direction and shape.

| SMILES | Potency | activity change, negative = inhibition |
| --- | --- | --- |
| CCN1CCN(C(=O)c2ccc3c(c2)c(C)c(C)n3Cc2ccccc2)CC1 | inconclusive [inhibitor, partial curve, poor fit] | – |
| Oc1ccc[n+](CC(O)c2ccccc2)c1 (stereo not drawn) | inconclusive [inhibitor, single point] | – |
| Cc1cccc(N(C(=O)CCC(=O)Nc2nccs2)C(C(=O)NC(C)(C)C)c2ccc(O)cc2)c1 (stereo not drawn) | inconclusive [inhibitor, single point] | – |
| COC(=O)C1=C(C)NC(C)=C(C(=O)OCC2CCCO2)C1c1cccc(Cl)c1 (stereo not drawn) | inconclusive [inhibitor, partial curve] | – |
| CCOC(=O)c1[nH]c2c(c1-c1ccc(OC)cc1)C(=O)CC(c1ccc(OC)c(OC)c1)C2 (stereo not drawn) | inconclusive [inhibitor, single point] | – |
| O=C(c1ccc2n[nH]nc2c1)N1CCN(c2ccc(C(F)(F)F)cn2)CC1 | inconclusive [inhibitor, single point] | – |
| O=C(CCCc1cccs1)N1CCN(S(=O)(=O)c2ccccc2Br)CC1 | inconclusive [inhibitor, single point] | – |
| CC1CN(Cc2csc(-c3ccc(Cl)cc3)n2)CC(C)O1 (stereo not drawn) | – | inactive: 177% |
| Cc1cc(O)c(C(=O)/C=C/c2ccc(C(C)C)cc2)c(=O)o1 | – | inactive: 16.6% |
| CC(C)(Oc1ccc(Cl)cc1)C(=O)N1CCN(c2ccccn2)CC1 | active: 14.7 µM | – |
| Cn1nc(C(C)(C)C)cc1NC(=O)Nc1ccc(F)cc1F | inconclusive [inhibitor, single point] | – |
| Cc1ccc(CCNC(=O)c2cccc(NC3=NC4CS(=O)(=O)CC4S3)c2)cc1 (stereo not drawn) | – | inactive: -12.2% |
| COc1cc(CCCN2CCNC[C@H]2Cc2ccc(O)cc2)cc(OC)c1OC | inconclusive [inhibitor, partial curve, poor fit] | – |
| O=C(NO)c1ccc(C(=O)N(C2CCCCC2)C2CCCCC2)cc1 | active: 3.29 µM | – |
| O=[N+]([O-])c1ccc(-c2c(-c3ccccc3)ncc3cc(F)ccc23)cc1 | active: 2.62 µM | – |
| CCCN(CCC)c1nc(C#N)nc(N(CCC)CCC)n1 | active: 11.7 µM | – |
| CCOc1ccc(C(C)C)cc1S(=O)(=O)n1ccnc1C | inconclusive [inhibitor, partial curve, poor fit] | – |
| CCCCOc1ccc(CN=C(N)N)cc1Cl | inconclusive [inhibitor, partial curve] | – |
| Cc1ccccc1NC(=O)C[n+]1cc(-c2ccccc2)n2c1CCC2 | inconclusive [inhibitor, single point] | – |
| O=C(Cn1ncc2c3ccccc3n(Cc3ccccc3)c2c1=O)N1CCN(c2ccccn2)CC1 | inconclusive [inhibitor, partial curve, poor fit] | – |
| C[C@H](NC(=O)c1nc[nH]c1C(=O)N[C@@H](C)c1ccccc1)c1ccccc1 | inconclusive [inhibitor, single point] | – |
| Cc1ccc(OP(N)(=O)Oc2ccc(C)cc2)cc1 | inconclusive [inhibitor, partial curve] | – |
| COCCSc1ccccc1C(=O)Nc1cc(C)ccn1 | – | inactive: 19.6% |

| SMILES | Potency | activity change, negative = inhibition |
| --- | --- | --- |
| CCN(CC)CCNC(=O)c1cc(-c2cccnc2)nc2ccc(S(=O)(=O)N3CCC(C)CC3)cc12 | inconclusive [inhibitor, full curve] | – |
| Cc1cc(NC(=O)CN2C(=O)NC(C)(c3ccccc3)C2=O)no1 (stereo not drawn) | – | inactive: -1.09% |
| CC(NC(=O)c1ccccc1NC(=O)CN1CCc2ccccc2C1)c1ccccc1 (stereo not drawn) | inconclusive [inhibitor, single point] | – |
| COc1ccccc1NC(=O)c1ccc(-n2ccnc2)c([N+](=O)[O-])c1 | inconclusive [inhibitor, partial curve, poor fit] | – |
| Cc1ccc(NC2=C/C(=N/S(=O)(=O)c3cccs3)c3ccccc3C2=O)cc1C | active: 0.657 µM | – |
| Cc1cc(Cl)c2oc(C(=O)NC(C)c3ccncn3)c(C)c2c1 (stereo not drawn) | – | inactive: 0% |
| COCCCNC(=O)Cn1c(=O)oc2cc(S(=O)(=O)N3CC(C)CC(C)C3)ccc21 (stereo not drawn) | inconclusive [inhibitor, single point] | – |
| COc1ccc(-n2c(Cc3cccn3C)nnc2SCC(=O)Nc2ccc3c(c2)OCO3)cc1 | inconclusive [inhibitor, single point] | – |
| Cc1cc(NC(=O)c2cc3n(n2)C(C(F)(F)F)CC(c2ccc(Cl)c(Cl)c2)N3)no1 (stereo not drawn) | inconclusive [inhibitor, single point] | – |
| COC(=O)c1cc(NC(=O)CC2SC(=Nc3ccccc3)N(CCc3c[nH]c4ccccc34)C2=O)cc(C(=O)OC)c1 (stereo not drawn) | active: 13.1 µM | – |
| CCn1c(SCC(=O)N2CCCCCC2)nc2ccccc2c1=O | inconclusive [inhibitor, partial curve, poor fit] | – |
| COc1ccc(O)c(/C=N/NC(=O)c2ccc(CSc3nc(C)cc(C)n3)cc2)c1 | inconclusive [inhibitor, single point] | – |
| CC(C)(C)NCC(O)c1cc(Cl)c(N)c(Cl)c1 (stereo not drawn) | active: 12 µM | – |
| CN(C[C@H](Cc1ccccc1)N(C[C@H](Cc1cccc2ccccc12)N(CCc1ccccc1)N=O)N=O)N=O | inconclusive [inhibitor, partial curve] | – |
| CC(C)[C@@]1(NC(=O)[C@H]2CC3c4cccc5[nH]cc(c45)C[C@H]3N(C)C2)O[C@@]2(O)C3CCCN3C(=O)[C@@H](Cc3ccccc3)N2C1=O (stereo partly drawn) | active: 1.51 µM | – |
| CCCc1cc(=O)n2c(nc3ccccc32)[nH]1 | inconclusive [inhibitor, single point] | – |
| CC(=O)c1ccc(Nc2cc(C)nc3c(C)cc(C)cc23)cc1 | active: 11.7 µM | – |
| COc1ccc(OC)c(NC(=O)CSc2ccc(-c3ccco3)nn2)c1 | – | inactive: -13.1% |
| CC(C)(Oc1ccc(Br)cc1)C(=O)N1CCc2ccccc21 | inconclusive [inhibitor, single point] | – |
| CCOc1ccc(NC(=O)C2CCCN2C(=O)OCc2ccccc2)cc1 (stereo not drawn) | inconclusive [inhibitor, partial curve, poor fit] | – |
| COc1cc2c(cc1OC)C(=O)N1[C@H]3c4cc(Cl)ccc4OC[C@@H]3[C@H](c3ccccc3)[C@]1(C)C(=O)N2 | active: 14.7 µM | – |
| N[C@@H](Cc1ccc(O)cc1)c1nnc([C@H](CO)NC(=O)C2CCNCC2)o1 | – | inactive: 2.1% |
| COc1ccc2c3c(cccc13)C(=O)N(O)C2=O | active: 13.1 µM | – |

| SMILES | Potency | activity change, negative = inhibition |
| --- | --- | --- |
| COC(=O)c1sccc1NC(=O)Nc1ccc(OC)c(OC)c1 | inconclusive [inhibitor, partial curve] | – |
| CC(=O)N1CCN(c2ccccc2NC(=O)COc2ccc(Br)cc2)CC1 | inconclusive [inhibitor, full curve] | – |
| CC(C)(C)c1ccc(Cn2nnc3c(=O)[nH]c(C4CCCN(C(=O)c5cccs5)C4)nc32)cc1 (stereo not drawn) | inconclusive [inhibitor, full curve] | – |
| CCOCCCNC(=O)c1c[nH]c2ccc(S(=O)(=O)Nc3cccc(OC)c3)cc2c1=O | inconclusive [inhibitor, single point] | – |
| CN(CCOC(=O)C1c2ccccc2Oc2ccccc21)C(C)(C)C | – | inactive: 7.68% |
| COC(=O)C1=C(c2ccc(Cl)c(C(F)(F)F)c2)C[C@@H]2CC[C@H]1N2C(=O)NCC1CC1 | active: 11.7 µM | – |
| CCC(C(=O)O)n1c2ccccc2c2cn[nH]c(=O)c21 (stereo not drawn) | – | inactive: 6.26% |
| CCOC(=O)c1c(CSCc2ccccc2)oc2ccc(O)c(CN(C)C)c12 | active: 5.86 µM | – |
| Cc1ccc(C(=O)N2CCCC(N3CCN(c4ccccc4F)CC3)C2)s1 (stereo not drawn) | – | inactive: -19.3% |
| Cn1c2ccccc2n2c(=O)c(=O)n(CC(=O)c3ccc(Cl)cc3)nc12 | – | inactive: -5.41% |
| OCCNc1nc2nonc2nc1NCCO | – | inactive: 15.8% |
| O=C(CNS(=O)(=O)c1ccc([N+](=O)[O-])cc1)N/N=C/c1ccc(O)cc1O | inconclusive [inhibitor, partial curve, poor fit] | – |
| Nn1cc(-c2ccccc2)nc1SCC(=O)N1CCN(S(=O)(=O)c2ccc(Cl)cc2)CC1 | inconclusive [inhibitor, partial curve, poor fit] | – |
| COc1ccc(OCC(=O)NC(=S)N2CCCc3ccccc32)cc1 | inconclusive [inhibitor, single point] | – |
| Cc1nnc(SCC(=O)N2CCN(C(=O)c3ccco3)CC2)n1-c1ccccc1 | – | inactive: 12.4% [at 5.75 µM] |
| CN(C(=O)c1sc2nc(N3CCOCC3)c3c(c2c1N)CCCC3)c1ccccc1 | inconclusive [inhibitor, partial curve, poor fit] | – |
| CCCN(CC(=O)Nc1ccccc1C)C(=O)c1ccc(N2CCOCC2)c([N+](=O)[O-])c1 | inconclusive [inhibitor, single point] | – |
| COC(=O)c1ccc(-c2ccc(/C=N/N3C(=O)C4C5C=CC(CC5)C4C3=O)o2)cc1 (stereo not drawn) | – | inactive: 74.8% |
| CC1(C)CCC(=O)C=C1Nc1ccc(F)c(Cl)c1 | inconclusive [inhibitor, single point] | – |
| CCOC(=O)c1c(O)c2ccccc2n(CC)c1=O | inconclusive [inhibitor, partial curve, poor fit] | – |
| COC(=O)C1=CN(c2cc(C)cc(C)c2)C=C(C(=O)OC)C1c1cccc(F)c1 | active: 11.7 µM | – |
| COc1ccc(CCNC(=O)CCN2C(=O)C(C)Oc3ccc(C)cc32)cc1OC (stereo not drawn) | inconclusive [inhibitor, partial curve, poor fit] | – |
